Data on six molecules can be found in paper PMC12136788.

Sequences and labels used below:
B1: 34984249_34984737_613_CDS_ENSMUSG00000040356_ENSMUST00000046022|mouse|control|control (ssRNA)
RNA: GGGAGUUCUACAGUCCGACGAUCUGGCACAGGAGCUGGAUGAUCUUUGGGGGCAAAAUCCACCCCUUUCUUGAAGCCAGGUGGGACAGUGAGAAGAUCUUUCUCAAAGUCUAUCUCCUCCUCAGCUUCCUCCCGAGUAUGCAGCAACAGAGGAUUGAGCAUCA
B2: 37285161_37285281_333_CDS_ENSMUSG00000066798_ENSMUST00000053098|mouse|control|control (ssRNA)
RNA: GGGAGUUCUACAGUCCGACGAUCUCCAGUAUAGCAGGACAACAGCAACUUCCAGCCUACUUCUGCACUCUGUAGAAUGGUGAUUCUGACAUGUUUUGACUGUGUGAGUAAAAACUGAUCUCUCAUGAAAGUGGAGCAAGCAGCCAACAGAGGAUUGAGCAUCA
B3: chr6:41757443:41757444:+_ENSG00000214736_ENST00000398881|hu_mus|hu_hu_hu_mus_False|48_78 (ssRNA)
RNA: GGGAGUUCUACAGUCCGACGAUCGAACCGUGCAGAGGCAACAUCUCAGCCGACACUGUGGACUCAAGGGGCAGUGGGGGGGGGUUCAGGGAAGGGGAGGGAGUCAACUUCAGCUGCCACUCAGGUAGGAUCUUGUGGUCACAGCAACAGAGGAUUGAGCAUCA
B4: 27834996_27842404_729_3pUTR_ENSMUSG00000022263_ENSMUST00000090247|mouse|control|control (ssRNA)
RNA: GGGAGUUCUACAGUCCGACGAUCUGCAGGAUCUUCAGCAGCGGCUUGAUGGAGUCCCACUUGGAGCCGCGCAUGUCCACAAUCACUGUGAACCCUCGCUUGCAGACUUCCUCACUGGGAAUGCAGGCUAAAUAGGAAAUGAGCCAACAGAGGAUUGAGCAUCA
B5: chr4:140556289:140556290:+_ENSMUSG00000036622_ENSMUST00000037055|mus_mus|FALSE|FALSE (ssRNA)
RNA: GGGAGUUCUACAGUCCGACGAUCGAUGGAGCUCACCAGGCCCCCUUUGGCUGUGCAGAACCCUGUCCGAGUCACCACUGCUAGCACACGGGGUCCCACGUAGGCUCGGGCCUGCAGAAUGAGGGUGCCACAGAAGAGGGUGUGCAACAGAGGAUUGAGCAUCA
B6: chr1:225611761:225611762:-_ENSG00000143815_ENST00000272163|hu_mus|hu_hu_hu_mus_True|78_88 (ssRNA)
RNA: GGGAGUUCUACAGUCCGACGAUCCCAGGCCAUCGGCCUCUGACCACUUCACCAUCGGCAAAUUUCCUACUUGGCAUUUUCUAAAAUUAGUCUGGCCGCGCUCCGGCGGGAACUCCAGCCACUCCAGGACAGUCACCAGCAGCCCAACAGAGGAUUGAGCAUCA

Some of the results follow.

This assay has as its target T1, UNK ZnF1-3 (human, UniProt Q9C0B0 31-174).
T1 sequence: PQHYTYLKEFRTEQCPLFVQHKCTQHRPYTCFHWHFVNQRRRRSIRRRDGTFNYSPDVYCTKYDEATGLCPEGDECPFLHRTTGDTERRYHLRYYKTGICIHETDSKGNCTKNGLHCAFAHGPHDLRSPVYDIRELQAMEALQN
Nature of the assay: nsRBNS (natural sequence RNA bind-n-seq); RBNS binding buffer (assumed for nsRBNS): 25 mM Tris pH 7.5, 150 mM KCl, 3 mM MgCl2, 0.01% Triton X-100, 500 ug/ml BSA, 20 U/ml SUPERase-In, 4 C; UNK is unkempt and MSI1 is Musashi-1; names of the RNAs are library labels; protein concentration not given here; high values mean tight binding.
Molecule B1 had a binding signal of 0.76 enrichment R.

For the molecule B2, the binding signal was found to be 0.828 enrichment R.

B3 displayed a binding signal of 2.24 enrichment R.

B4 displayed a binding signal of 0.912 enrichment R.

B5 registered a binding signal of 1.5 enrichment R.

With B6, the binding signal turned out to be 1.23 enrichment R.
